Data: ChEMBL document CHEMBL4888484, “Replenishing the malaria drug discovery pipeline: Screening and hit evaluation of the MMV Hit Generation Library 1 (HGL1) against asexual blood stage Plasmodium falciparum ,using a nano luciferase reporter read-out” (2022)
About 540 (0.36%) of roughly 150,000 compounds showed an effect of 50% or more. The list shows a part of the results.

What follows are compounds tested on Plasmodium falciparum (assay: Primary screen in NF54 nanoGlo assay, in single point, at 2uM, 72h; a lower Z score goes with more inhibition). Settings: timepoint 72 hour.
Type: functional, Erythrocyte

SMILES | % Inhibition | Z score
Cc1nnsc1C(=O)N1CCN(C)Cc2ccccc21 | -12% | 1.61
CN(CCC[C@H]1CCCO1)C(=O)c1ccc2c(c1)CCCC2 | -1% | 0.23
CCn1ncc(N2CCC[C@H](CC(=O)Nc3cc(OC)cc(OC)c3)C2)cc1=O | -5% | 0.57
CC1=NN(S(=O)(=O)c2cnn(C)c2C)[C@@](O)(C(F)(F)Cl)C1 | -15% | 1.71
O=C([C@@H]1COCC(=O)N1Cc1ccccc1)N1CCN(c2ccccc2O)CC1 | -12% | 2.27
Cc1nc(N(C)C)nc(-c2cncc(N)c2)c1C | -7% | 1.28
CCC(=O)Nc1cc(Cl)ccc1Cl | -8% | 1.52
C[C@@H](NC(=O)N[C@@H]1COC(=O)C1)c1cc(Cl)ccc1Cl | -8% | 1.34
CC(C)(C)CCS(=O)(=O)N1CCC[C@H](S(N)(=O)=O)C1 | 3% | -0.21
Cn1cccc1C(=O)NCc1cn2c(n1)C(=O)N(Cc1ccccc1)CC2 | -5% | 0.66
COC1(C(=O)N2CCN(C(=O)Cc3ccccc3)CC2)CCC1 | -3% | 0.42
CC1(S(=O)(=O)N2CCC[C@H](c3c[nH]nn3)C2)CC1 | 2% | -0.48
Cc1noc(C)c1CCC(=O)Nc1ccc2c(c1)N(C)S(=O)(=O)N2C | 17% | -2.27
CNc1nc2c(s1)[C@@H](c1ccc(Cl)c(Cl)c1)CC(O)=N2 | 3% | -0.4
COCc1nc(C)c(CNC(=O)C[C@H]2CCOC2)s1 | -6% | 1.21
CCOC[C@H]1CCCN1C(=O)c1cc(C(C)C)nn1C | 5% | -0.7
C[C@H](NC(N)=O)C(=O)N(CCc1cccc(F)c1)C1CC1 | 5% | -0.9
CCCn1nnnc1CN1C(=O)N[C@@](CC)(C(C)C)C1=O | 13% | -1.64
CC[C@]1(O)CCN(C(=O)c2ccccc2OC(F)(F)C(F)F)C[C@@H]1O | -14% | 1.31
Cc1noc(C(=O)NCc2ccccn2)c1Cl | 2% | -0.3
CN1CCC(N2CCOc3c(O)cc(-c4ccc(Cl)cn4)cc3C2)CC1 | -7% | 1.33
O=C(CC[C@H]1CCCO1)Nc1ccccn1 | -8% | 0.86

SMILES | % Inhibition | Z score
COc1ccc([C@H]2CC(=O)Nc3cccc4c3c2cn4Cc2cccc(F)c2)cc1OCCc1ccc2c(c1)CCO2 | -3% | 0.37
COc1ccc(S(=O)(=O)N[C@H]2CCN(c3ccc(F)c(C)c3)C2=O)cc1 | 6% | -0.91
O=C1N(C2CCCCC2)C[C@H]2CN(S(=O)(=O)c3ccccc3)CCN12 | -15% | 1.93
CO[C@H]1CC[C@@]2(OC)CCN(C(=O)c3cc(C(C)C)nn3C)[C@H]2C1 | -31% | 2.69
N#Cc1ccc(-n2nccc2NC(=O)C(CC2COCCO2)C(F)(F)F)cc1 (configuration not stated) | -16% | 1.96
Cc1nc(-c2ncnn2C2CCCCC2)cs1 | -12% | 1.86
CCc1oc(C(=O)N[C@@H](C)c2ncon2)cc1C | 10% | -0.93
Cc1ccn(CC(=O)N2CCN(Cc3cccnc3)C[C@@H]2C)c(=O)c1 | -4% | 0.46
Cc1noc(C)c1CC(=O)Nc1ccnn1C1CCCC1 | -9% | 1.65
Cc1ccc2nc(C(=O)N(C)Cc3nc(C)c[nH]3)c(F)n2c1 | -11% | 1.83
O=c1nc2n(c3cc(Cl)c(S(=O)(=O)N4CCOCC4)cc13)CCCCC2 | -5% | 0.58
Cn1c(Cn2ncn3cccc3c2=O)nc2ccccc21 | -5% | 0.71
COCCC(=O)Nc1ccncc1C(=O)C(C)C | -7% | 1.01
CCC[C@]1(CO)CCCN(C(=O)c2cccc(-c3cccs3)c2)C1 | -2% | 0.32
O=C(N[C@@H](CCO)C1CCOCC1)c1ccoc1Cl | 16% | -2.01
Cc1cc(C(=O)NC[C@@]23CCC[C@H]2N(CC2CCCCC2)C(=O)CC3)nn1C | -22% | 2.96
CC[C@H]1c2cccn2CCN1C(=O)c1ncc(Cc2ccccc2)o1 | -16% | 2.17
CCCNC(=O)C(C)NC(=O)C(C)Oc1ccc(Cl)cc1 (configuration not stated) | -9% | 1.73
Cc1noc(C)c1C[C@H](C)C(=O)NS(=O)(=O)CC1CCOCC1 | -7% | 0.87
Cc1c(CNc2cc(F)ccc2N2CCCCC2)cnn1C | 4% | -0.31
Cc1ccc(CN2CC[C@H](CNC(=O)NC(C)C)C2)cc1C | -8% | 1.55
Cc1ccc(S(=O)(=O)Nc2ccc(C)n(CC(=O)N3CCC(C)CC3)c2=O)cc1 | -10% | 1.35

SMILES | % Inhibition | Z score
CCc1nnc(C(C)NC2CCCCC2C)o1 (configuration not stated) | -6% | 0.73
CC(C)(CCCO)CNS(=O)(=O)c1c(F)cc(F)cc1C#N | -4% | 0.76
CN(CC1(O)CCCC1)C(=O)c1cnns1 | -1% | 0.12
CC1=C(C(=O)NCCC(=O)Nc2nccs2)[C@H](C)NC(=O)N1 | -9% | 0.84
CC(C)c1ccc(C(=O)NCC(=O)C(C)(C)C)cn1 | -18% | 2.58
Cc1cccc(Cc2sc(NC(=O)Cn3cn[nH]c3=O)nc2C)c1 | -2% | 0.34
CN(c1ccc(Br)cc1)S(=O)(=O)c1ccc2c(c1)CCN2C(=O)C1CCC1 | 34% | -4.56
CCOC1CC(c2nc(-c3ccsc3)no2)C1 (configuration not stated) | -9% | 1.29
Nc1ncccc1CNC(=O)c1nc(C2CC2)ncc1Br | 4% | -0.57
CCCc1nnc(N2CCC[C@]3(CCCN(C)C3)C2)o1 | -14% | 1.48
CC(=O)N1CCN(C2CN(C(C)c3nc(C4CC4)no3)CC2C)CC1 (configuration not stated) | -14% | 1.24
CN1CCCN(C(=O)c2ccnc(OCC3CC3)c2)CC1 | -10% | 1.83
Cc1oncc1C(=O)NCc1cc(-c2cccnc2)nn1C | -5% | 0.87
CC(C)=CCO[C@H]1CCOC[C@H]1NC(=O)c1c[nH]c2cc(C)nn2c1=O | -7% | 1.28
CC(C)[C@H](Nc1ncnc2ccccc12)C(=O)NCc1ccccn1 | 7% | -0.86
O=C(Nc1ccc2c(c1)CCC2)c1coc(CN2CCN(C[C@H](O)c3ccccc3)CC2)n1 | -4% | 0.67
CCc1ccc(CN2CCc3c(C(=O)NCC4CCNCC4)csc3C2)nc1 | -5% | 0.68
O[C@H]1C[C@@H](c2cc(N3CCCC4(CCOCC4)C3)ncn2)C1 | -2% | 0.2
Cc1ncnc(NCc2csc(N3CCOCC3)n2)c1C | 0% | 0.07
C[C@@H]1CN(CCCNC(=O)c2cccc(-c3cccc(C#N)n3)c2)C[C@H](C)O1 | -11% | 1.51
CCCOc1c(Cl)cc(CNc2ccnc(C(=O)N3CCC(O)CC3)c2)cc1OCC | -8% | 1.19
CC(C)(C)NC(=O)NC(=O)CNC(C)(C)COc1ncccc1Br | -1% | 0.16

SMILES | % Inhibition | Z score
CC(C)c1ccc(N2C(=O)CN(CCC3=CCCCC3)[C@H]3CS(=O)(=O)C[C@H]32)cc1 | -10% | 1.35
O=C(Nc1ccc2c(c1)OC1(CCCCC1)O2)[C@@H]1CCCO1 | -11% | 1.07
COc1ccc(F)c(NCc2noc([C@@H]3COc4ccccc4O3)n2)c1 | -3% | 0.53
COC(=O)C1(NCc2nc(N(C)C)no2)CCCCCC1 | -12% | 1.67
CS(=O)(=O)N1CCC[C@@H]1CNc1ccc(Br)cn1 | -16% | 1.96
OCC[C@H]1CN(Cc2cc(C3CC3)on2)CCN1CC1CC1 | -3% | 0.49
CC(C)CS(=O)(=O)C1CN(S(=O)(=O)Cc2cccc(F)c2)C1 | -20% | 2.53
Cc1ncc(-c2cc(C(=O)N3CCc4ccccc4C3)c3ccccc3n2)cn1 | -10% | 1.55
Cn1cc(S(=O)(=O)N2CCC(C(=O)NCc3ccccc3)CC2)c(=O)n(C)c1=O | 4% | -0.43
Cc1cc(-n2c(C)cc(CNCC3(N4CCOCC4)CCCCC3)c2C)no1 | 1% | -0.31
COc1cc([C@H](C)Nc2cc(C)ncn2)ccc1F | -5% | 0.84
CCOc1ncccc1C(=O)N1CCC[C@H]1c1nc2ccccc2s1 | -5% | 0.65
CN(Cc1cc(C2CC2)n[nH]1)CC1(CO)CCC1 | 5% | -0.84
O=C1[C@@H]2C(c3ccc(F)cc3)=NO[C@@H]2C(=O)N1c1ccc(Cl)cc1Cl | -5% | 0.88
CN1CCN([C@H]2CCN(c3nccnc3C#N)C2)CC1 | -4% | 0.36
CC(C)c1nsc(N[C@@H](C)c2cnccn2)n1 | 2% | -0.29
Cc1nc(N2CCN(C(=O)c3cc4n(n3)CCCO4)CC2)cc(C(F)(F)F)n1 | -9% | 1.16
C[C@@H]1CN(C(=O)c2ccc3nc(-c4ccc(F)cc4)cn3c2)C[C@H](C)O1 | -11% | 1.14
COC1(c2nc(Cc3cccnc3)no2)CCOCC1 | -3% | 0.52
CC(=O)Nc1nc(CS(=O)(=O)Cc2cc(C)no2)cs1 | -5% | 0.93
